# Some of the results follow.
# Key:
# Experiment in all cases: glycan array binding signal (z-score within array); higher = stronger binding
# Conditions in all cases: glycan notation: IUPAC condensed, linker removed
# [1] = biological target: Fuc(a1-2)Gal(b1-4)[Fuc(a1-3)]GlcNAc(b1-2)[Fuc(a1-2)Gal(b1-4)[Fuc(a1-3)]GlcNAc(b1-4)]Man(a1-3)[Fuc(a1-2)Gal(b1-4)[Fuc(a1-3)]GlcNAc(b1-2)Man(a1-6)]Man(b1-4)GlcNAc(b1-4)GlcNAc
# Summary of the method: (§1)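 The binding signal is a Z-score computed within each array. Data were drawn from 3228 arrays in the Consortium for Functional Glycomics database, restricted to those with a known protein sequence. Scores were averaged over arrays of the same protein sequence at different concentrations or buffers, and over linkers, and negative values can be taken as non-binding.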
# [2] = biological target: Fuc(a1-2)Gal(b1-4)[Fuc(a1-3)]GlcNAc(b1-3)Gal(b1-4)[Fuc(a1-3)]GlcNAc
# Summary of the method: as §1
# [3] = biological target: Fuc(a1-2)Gal(b1-4)[Fuc(a1-3)]GlcNAc(b1-3)Gal(b1-4)[Fuc(a1-3)]GlcNAc(b1-3)Gal(b1-4)[Fuc(a1-3)]GlcNAc
# Summary of the method: as §1
# [4] = biological target: Fuc(a1-2)Gal(b1-4)[Fuc(a1-3)]GlcNAc(b1-3)GalNAc
# Summary of the method: as §1
# Fuc(a1-2)Gal6S(b1-4)Glc = biological target: Fuc(a1-2)Gal6S(b1-4)Glc
# Summary of the method: as §1
# [5] = biological target: Fuc(a1-2)Gal6S(b1-4)Glc6S
# Summary of the method: as §1
# [6] = biological target: Fuc(a1-2)Gal6S(b1-4)GlcNAc
# Summary of the method: as §1
# Fuc(a1-2)[Gal(a1-3)]Gal = biological target: Fuc(a1-2)[Gal(a1-3)]Gal
# Summary of the method: as §1
# [7] = biological target: Fuc(a1-2)[Gal(a1-3)]Gal(b1-3)GlcNAc
# Summary of the method: as §1
# [8] = biological target: Fuc(a1-2)[Gal(a1-3)]Gal(b1-3)GlcNAc(b1-2)Man(a1-3)[Fuc(a1-2)[Gal(a1-3)]Gal(b1-3)GlcNAc(b1-2)Man(a1-6)]Man(b1-4)GlcNAc(b1-4)GlcNAc
# Summary of the method: as §1
# [9] = biological target: Fuc(a1-2)[Gal(a1-3)]Gal(b1-3)GlcNAc(b1-3)GalNAc
# Summary of the method: as §1
# [10] = biological target: Fuc(a1-2)[Gal(a1-3)]Gal(b1-4)Glc
# Summary of the method: as §1
# [11] = biological target: Fuc(a1-2)[Gal(a1-3)]Gal(b1-4)GlcNAc
# Summary of the method: as §1
# [12] = biological target: Fuc(a1-2)[Gal(a1-3)]Gal(b1-4)GlcNAc(b1-2)Man(a1-3)[Fuc(a1-2)[Gal(a1-3)]Gal(b1-4)GlcNAc(b1-2)Man(a1-6)]Man(b1-4)GlcNAc(b1-4)GlcNAc
# Summary of the method: as §1
# [13] = biological target: Fuc(a1-2)[Gal(a1-3)]Gal(b1-4)GlcNAc(b1-2)Man(a1-3)[Fuc(a1-2)[Gal(a1-3)]Gal(b1-4)GlcNAc(b1-2)Man(a1-6)]Man(b1-4)GlcNAc(b1-4)[Fuc(a1-6)]GlcNAc
# Summary of the method: as §1
# [14] = biological target: Fuc(a1-2)[Gal(a1-3)]Gal(b1-4)GlcNAc(b1-3)GalNAc
# Summary of the method: as §1
# [15] = biological target: Fuc(a1-2)[Gal(a1-3)]Gal(b1-4)[Fuc(a1-3)]Glc
# Summary of the method: as §1
# [16] = biological target: Fuc(a1-2)[Gal(a1-3)]Gal(b1-4)[Fuc(a1-3)]GlcNAc
# Summary of the method: as §1
# [17] = biological target: Fuc(a1-2)[Gal(a1-3)]Gal(b1-4)[Fuc(a1-3)]GlcNAc(b1-3)GalNAc
# Summary of the method: as §1
# [18] = biological target: Fuc(a1-2)[Gal(a1-4)]Gal(b1-4)GlcNAc
# Summary of the method: as §1
# [19] = biological target: Fuc(a1-2)[GalNAc(a1-3)]Gal
# Summary of the method: as §1
# [20] = biological target: Fuc(a1-2)[GalNAc(a1-3)]Gal(b1-3)GalNAc(a1-3)[Fuc(a1-2)]Gal(b1-4)GlcNAc
# Summary of the method: as §1
# [21] = biological target: Fuc(a1-2)[GalNAc(a1-3)]Gal(b1-3)GlcNAc
# Summary of the method: as §1
# [22] = biological target: Fuc(a1-2)[GalNAc(a1-3)]Gal(b1-3)GlcNAc(b1-2)Man(a1-3)[Fuc(a1-2)[GalNAc(a1-3)]Gal(b1-3)GlcNAc(b1-2)Man(a1-6)]Man(b1-4)GlcNAc(b1-4)GlcNAc
# Summary of the method: as §1
# [23] = biological target: Fuc(a1-2)[GalNAc(a1-3)]Gal(b1-3)GlcNAc(b1-3)GalNAc
# Summary of the method: as §1
# [24] = biological target: Fuc(a1-2)[GalNAc(a1-3)]Gal(b1-4)Glc
# Summary of the method: as §1
# [25] = biological target: Fuc(a1-2)[GalNAc(a1-3)]Gal(b1-4)GlcNAc
# Summary of the method: as §1
# [26] = biological target: Fuc(a1-2)[GalNAc(a1-3)]Gal(b1-4)GlcNAc(b1-2)Man(a1-3)[Fuc(a1-2)[GalNAc(a1-3)]Gal(b1-4)GlcNAc(b1-2)Man(a1-6)]Man(b1-4)GlcNAc(b1-4)GlcNAc
# Summary of the method: as §1
# [27] = biological target: Fuc(a1-2)[GalNAc(a1-3)]Gal(b1-4)GlcNAc(b1-3)Gal(b1-4)GlcNAc
# Summary of the method: as §1
# [28] = biological target: Fuc(a1-2)[GalNAc(a1-3)]Gal(b1-4)GlcNAc(b1-3)Gal(b1-4)GlcNAc(b1-3)Gal(b1-4)GlcNAc
# Summary of the method: as §1
binder,measurement,setting,value
Gal 4 (Canis lupus) (protein) MAYVPAPGYQPTYNPTLPYNKPIPGGLSVGMSVYIQGITSEHMRRFCVNFVAGAHPGSDIAFHFNPRFDGWDKVVFNSHLGGKWGSEEKKRSMPFRKGTHFELVFMVLAEHYKVVVNGNPFYEFGHRLPLQLVTHLQVEGDVELQSINFIGGTQPLGQGPGHTQQQPSSLPTMEGPPVFNPPVPFRKRLQGGLTVRRTVIIKGFVPFTSKSFVINFMVESSGDLALHINPRLTEGLVVRNSCLNGSWGSEDRKLSYNPFIPGQFFDLSIRCGMDRFKVYANGQHLFDFSHRLLALQNVDMLEINGDVTLSYIQV,glycan array binding signal (z-score),[1],-0.118
same,glycan array binding signal (z-score),[2],-0.151
same,glycan array binding signal (z-score),[3],-0.151
same,glycan array binding signal (z-score),[4],-0.113
same,glycan array binding signal (z-score),Fuc(a1-2)Gal6S(b1-4)Glc,-0.149
same,glycan array binding signal (z-score),[5],-0.151
same,glycan array binding signal (z-score),[6],-0.153
same,glycan array binding signal (z-score),Fuc(a1-2)[Gal(a1-3)]Gal,-0.149
same,glycan array binding signal (z-score),[7],2.33
same,glycan array binding signal (z-score),[8],0.887
same,glycan array binding signal (z-score),[9],-0.06
same,glycan array binding signal (z-score),[10],8.77
same,glycan array binding signal (z-score),[11],1.75
same,glycan array binding signal (z-score),[12],2.77
same,glycan array binding signal (z-score),[13],0.337
same,glycan array binding signal (z-score),[14],-0.147
same,glycan array binding signal (z-score),[15],-0.152
same,glycan array binding signal (z-score),[16],-0.147
same,glycan array binding signal (z-score),[17],-0.146
same,glycan array binding signal (z-score),[18],-0.142
same,glycan array binding signal (z-score),[19],-0.155
same,glycan array binding signal (z-score),[20],-0.149
same,glycan array binding signal (z-score),[21],0.573
same,glycan array binding signal (z-score),[22],0.393
same,glycan array binding signal (z-score),[23],-0.136
same,glycan array binding signal (z-score),[24],5.95
same,glycan array binding signal (z-score),[25],2.36
same,glycan array binding signal (z-score),[26],3.76
same,glycan array binding signal (z-score),[27],7.32
same,glycan array binding signal (z-score),[28],0.359

# Source: the supplement of paper PMC8728848
